The whole screen tested about 310,000 compounds, of which about 2,200 (0.71%) showed an effect of 50% or more. Effects have a minus sign here. This is one part of the list.
target: human ether-à-go-go-related gene (hERG) potassium channel (human, UniProt Q12809); assay: primary screen, population patch clamp on CHO cells stably expressing hERG
Sequence (Q12809 whole entry, looked up): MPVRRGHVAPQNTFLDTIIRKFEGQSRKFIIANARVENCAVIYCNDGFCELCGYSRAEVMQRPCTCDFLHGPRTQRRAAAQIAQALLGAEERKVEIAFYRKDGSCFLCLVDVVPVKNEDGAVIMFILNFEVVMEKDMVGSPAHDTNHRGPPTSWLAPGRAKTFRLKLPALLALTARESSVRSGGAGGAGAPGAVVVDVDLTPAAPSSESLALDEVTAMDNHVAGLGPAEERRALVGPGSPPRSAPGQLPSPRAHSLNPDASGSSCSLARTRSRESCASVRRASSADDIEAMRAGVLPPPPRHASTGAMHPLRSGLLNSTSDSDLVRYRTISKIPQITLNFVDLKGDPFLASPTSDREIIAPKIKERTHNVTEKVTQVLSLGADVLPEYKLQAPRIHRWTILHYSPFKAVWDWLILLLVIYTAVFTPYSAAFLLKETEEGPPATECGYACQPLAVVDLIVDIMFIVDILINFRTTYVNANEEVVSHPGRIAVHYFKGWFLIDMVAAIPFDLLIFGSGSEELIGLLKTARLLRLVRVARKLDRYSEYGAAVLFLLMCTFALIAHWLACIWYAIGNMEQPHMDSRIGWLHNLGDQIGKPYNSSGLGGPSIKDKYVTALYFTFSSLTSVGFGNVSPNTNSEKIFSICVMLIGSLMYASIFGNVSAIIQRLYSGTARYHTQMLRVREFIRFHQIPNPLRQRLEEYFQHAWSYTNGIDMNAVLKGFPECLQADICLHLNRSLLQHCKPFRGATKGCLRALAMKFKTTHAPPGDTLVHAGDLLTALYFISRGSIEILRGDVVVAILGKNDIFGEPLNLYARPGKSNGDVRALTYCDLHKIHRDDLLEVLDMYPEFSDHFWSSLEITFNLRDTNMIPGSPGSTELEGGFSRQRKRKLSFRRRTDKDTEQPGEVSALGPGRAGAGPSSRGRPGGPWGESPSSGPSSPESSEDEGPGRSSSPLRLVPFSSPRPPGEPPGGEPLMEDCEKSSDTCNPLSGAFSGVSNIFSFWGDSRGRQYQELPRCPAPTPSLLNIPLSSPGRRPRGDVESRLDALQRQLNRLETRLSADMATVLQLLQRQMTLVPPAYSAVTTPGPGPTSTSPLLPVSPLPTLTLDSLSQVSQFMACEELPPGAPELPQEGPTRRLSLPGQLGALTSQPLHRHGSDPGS

Compound	hERG current change (%, negative = inhibition) at 1uM
C/C(=N\NC(=O)c1ccc(NS(=O)(=O)c2cccs2)cc1)c1ccccc1	12.5%
Cc1ccc(-c2cc(C(=O)OCC(=O)NC3CC3)c3ccccc3n2)cc1	13.3%
Cc1[nH]c2ccccc2c1CCN(Cc1cccnc1)C(=S)Nc1cccc(F)c1	15.7%
O=C(N/C(=C/c1ccc(Br)cc1)C(=O)N1CCCC1)c1cccs1	9.87%
CCCOc1ccc(C(C)=O)cc1CC(C(=O)OCC)C(=O)OCC	13%
O=C(O)C(=O)O.c1ccc(OCCOCCN2CCN(C(c3ccccc3)c3ccccc3)CC2)cc1	-10.2%
COc1c(C(O)CC(C)C)ccc2c1C(=O)OCc1cc(C)cc(O)c1O2 (stereo not shown)	5.24%
COc1ccccc1OCC(=O)Nc1ccc(CSc2ccccc2)cc1C	9.85%
CCOc1ccc2nc(SCC(=O)Nc3cc4c(cc3C(C)=O)OCO4)[nH]c2c1	5.19%
CSCC[C@H](NC(=O)Nc1ccc(C)cc1C)C(=O)O	-7.16%
Cn1cccc1C(=O)N1CCN(c2cccc(C(F)(F)F)c2)CC1	11.9%
Cc1cc(Br)c(NC(=O)c2ccccc2[N+](=O)[O-])cc1C	4.52%
Nc1nc(SCC(=O)NCc2ccco2)[nH]c(=O)c1-c1ccccc1	8.98%
CC1=CC(C)(C)Nc2ccc(OC(=O)c3ccco3)cc21	5.24%
CC(C)CSc1oc(-c2ccco2)nc1S(=O)(=O)c1ccccc1	-1.1%
Cc1ccc2c(c1)N(CC(=O)N1CCN(C3CCCCC3)CC1)C(=O)CO2	-1.72%
COc1ccc(CNc2ccc3c(c2)ncn3-c2ccccc2OC)cc1	-7.92%
O=C(CNC(=O)c1ccc(Br)cc1)c1ccccc1	17.5%
O=c1[nH]c(CSc2ccccn2)nc2ccccc12	6.7%
C=C(Br)CN1CCN(CC(=C)Br)CC1	8.31%
CCN1C(=O)N[C@@H](c2ccccc2)[C@H](C(=O)OC)[C@H]1C	8.39%
O=C(Nc1ccc(N2CCN(C(=O)c3ccco3)CC2)cc1)c1ccccc1Br	12.7%

Compound	hERG current change (%, negative = inhibition) at 1uM
CC(Sc1nc2c(c(=O)[nH]1)CCCC2)C(=O)Nc1ccccc1C#N (stereo not shown)	19.4%
COc1ccc(C(=O)OCC(=O)N2CCOCC2)cc1S(=O)(=O)N1CCOCC1	9.24%
CCOC(=O)c1c(C)[nH]c(O)c1C=Nc1ccccc1	8.32%
O=c1c2ccccc2c(-c2ccccc2)nn1-c1cc(Cl)ccc1[N+](=O)[O-]	14.7%
Cc1ccccc1Nc1nc(N)nc(CN(C)Cc2ccccc2Cl)n1	8.65%
NC(=O)c1ccccc1NC(=O)Nc1cccc(Cl)c1	-5.75%
Fc1cccc(NC(=S)NCc2ccccn2)c1	2.61%
COc1ccc(S(=O)(=O)N2CCOCC2)cc1NC(=O)c1ccc2c(c1)OCO2	7.9%
O=C(Nc1ccc(C(F)(F)F)cc1)c1cccc(-n2cnnn2)c1	5.95%
COc1ccc(-c2cc(C(=O)NC3CCCC3)no2)cc1	10.2%
CCn1nc(C)cc1C(=O)N1CCCC(N2CCN(Cc3ccc4c(c3)OCO4)CC2)C1 (stereo not shown)	9.04%
CC(Oc1ccc(C(=O)c2ccc(F)cc2)cc1)C(=O)N1CCOCC1 (stereo not shown)	9.67%
COc1cc(CN2CCCCCC2)cc([N+](=O)[O-])c1O	11.2%
CCC1(C)Cc2c(sc3nc(NC)n(C)c(=O)c23)CO1.Cl (stereo not shown)	6.38%
Cc1ccc(-n2nnnc2-c2cnoc2-c2cccc(F)c2)cc1	11.6%
COc1ccccc1C(=O)N1CC2(C)CC1CC(C)(C)C2 (stereo not shown)	15%
COc1cccc(N2CCN(C(=S)Nc3ccccc3)CC2)c1	17%
Cc1ccnc(NC(=O)Cc2c(F)cccc2Cl)c1	6.44%
CC1(C)NC(=O)N(CC(=O)N2CCN(S(=O)(=O)c3ccccc3C(F)(F)F)CC2)C1=O	13.7%
COC(=O)C1=C(C)N(CCCC(=O)O)C(=O)NC1c1cccc(OC)c1 (stereo not shown)	10.9%
CCOc1ccc(CCNC(=O)CCc2nc(-c3ccc(OC)cc3)no2)cc1OCC	8.96%
O=C(C1CCCN1S(=O)(=O)c1cccc2nsnc12)N1CCCCCC1 (stereo not shown)	13.8%

Compound	hERG current change (%, negative = inhibition) at 1uM
CCN(CC)S(=O)(=O)c1ccc(C(=O)Nc2nnc(-c3ccco3)o2)cc1	7.23%
CCOC(=O)C1=C(COC(=O)CNC(=O)c2cc(OC)c(OC)c(OC)c2)NC(=O)NC1C (stereo not shown)	3.59%
COC(=O)c1ccccc1NC(=O)CN1C(=O)c2ccccc2S1(=O)=O	8.1%
CCCc1nc(NC(=O)c2ccccc2)nc(NC(=O)c2ccccc2)n1	-2.45%
COc1ccc(C(=O)N/N=C/c2ccc(OC(=O)c3cccs3)cc2)cc1	4.39%
O=C(COc1ccccc1)Nc1ccc([N+](=O)[O-])cc1	6.2%
CCOc1ccccc1NC(=O)COC(=O)COc1c(Cl)cc(Cl)c2ccc(C)nc12	7.8%
Cc1cc(C)c(C#N)c(SCc2nnc(-c3ccccc3[N+](=O)[O-])o2)n1	6.98%
CC1(C)Oc2ccc(C(=O)N/N=C/c3ccc(O)cc3)cc2NC1=O	14%
CCOC(=O)[C@H]1[C@H]2COc3ccc(Cl)cc3[C@@H]2N2C(=O)c3cc(F)c(F)cc3NC(=O)[C@@]12C	9.69%
O=C(NNC(=O)C1CC(c2cccs2)=NO1)Nc1ccc(Cl)cc1 (stereo not shown)	11%
O=C(CSCc1cc(=O)n2ccsc2n1)Nc1ccccc1	11.4%
COc1cc(C(O)c2nc3ccccc3n2C(C)C)cc(OC)c1OC (stereo not shown)	14.5%
Cc1ccc(NC(=O)c2cnn(-c3ccccc3)c2C)c(C)c1	11.3%
O=C(c1c[nH]c(C(=O)C(Cl)(Cl)Cl)c1)c1ccc(F)cc1Cl	15.3%
Cc1c(C=O)c2ccccc2n1Cc1ccccc1	9.71%
CC(=O)Nc1ccc(NC(=O)CC(c2ccccc2)c2ccccc2)cc1	17.5%
N#Cc1cc2c(nc1SCC(=O)N1CCOCC1)CCCCC2	16.4%
C=C1N(c2ccccc2)C(=O)OC1(C)C	9.87%
Cn1ncc(Cl)c1C(=O)N1CCN(S(=O)(=O)c2ccc(F)cc2)CC1	6.27%
O=C(Nc1ccccc1)c1ccc(Br)c(S(=O)(=O)Nc2ccccn2)c1	8.98%
CC(C)(Oc1ccc(Cl)cc1)C(=O)NCCN1C(=O)S/C(=C/c2cccnc2)C1=O	-16.7%

Compound	hERG current change (%, negative = inhibition) at 1uM
O=C(NCCN1CCOCC1)C(=O)NCC1OCCN1S(=O)(=O)c1cc(F)ccc1F (stereo not shown)	-0.597%
CCOC(=O)N(Cc1ccccc1)C(C(=O)O)C(C(=O)O)N(Cc1ccccc1)C(=O)OCC (stereo not shown)	13.7%
CCOc1ccc(N2C(=O)c3ccccc3C2O)cc1 (stereo not shown)	-3.93%
O=C(c1ccc2ccccc2n1)N1CCN(Cc2c(F)cccc2Cl)CC1	8.6%
O=C(Cc1cccc2ccccc12)NCCC1=CCCCC1	-3.43%
Cl.N=C1CCCN1c1ccccc1O	8.75%
Br.c1cc2c(cc1-c1csc(NNC3=NCCCCC3)n1)OCCO2	-18.8%
CC1CCN(c2nc3ccc(C(=O)N4CCN(Cc5ccc6c(c5)OCO6)CC4)cc3s2)CC1	7.9%
COc1ccc(CCN(C)S(=O)(=O)c2cn(C)c(=O)n(C)c2=O)cc1OC	9.43%
Cc1ccccc1Nc1ncnc2c1cnn2-c1ccccc1	13.2%
CC(C(=O)NC1C=CS(=O)(=O)C1)N1C(=O)/C(=C/c2cccc(Cl)c2)SC1=S (stereo not shown)	4.53%
O=C(Nc1nccs1)C1CCN(S(=O)(=O)c2cnc[nH]2)CC1	9.81%
CC(O)c1cccc(NC(=O)CC(c2ccccc2)c2ccccc2)c1 (stereo not shown)	12%
Cc1cc(C)nc(N2CCN(C(=O)c3ccc(S(=O)(=O)N4CCCCCC4)cc3)CC2)n1	6.85%
O=C(CCn1c(=O)oc2ccccc21)Nc1ccccc1	15.3%
COc1ccccc1NC(=S)NNC(=O)c1ccncc1	17.9%
COc1ccc(N=c2cc(-c3ccc(O)cc3)oc3ccccc23)cc1.Cl	-2.66%
O=C(Nc1ccc(F)cc1)c1ccccc1S(=O)(=O)c1ccccc1[N+](=O)[O-]	2.52%
Cc1cc(C)c(S(=O)(=O)N2CCC(C(=O)NCc3ccncc3)CC2)c(C)c1	11.9%
CCC1CCCCN1CCCNC(=O)CN1C(=O)COc2ccc(S(=O)(=O)N3CCOCC3)cc21 (stereo not shown)	-0.484%
Cc1cc(=O)oc(C)c1C(=O)N1CCN(C)CC1	16.2%
Cc1ccc(-c2cc(C(=O)Nc3ccccc3C)c3ccccc3n2)o1	11.8%
